# Reference: PubChem BioAssay AID360 (National Center for Advancing Translational Sciences (NCATS), 2006)
# About 550 (1.1%) of roughly 48,000 compounds were called active. About 4% were inconclusive and are not listed. Rule as the data show it: active = potency below about 15 µM; inconclusive = mostly about 16 µM to 33 µM; inactive = weaker than that. The list shows a part of the results.
# Molecular target: Lysosomal acid glucosylceramidase (Homo sapiens) (UniProt P04062)
# Test: Glucocerebrosidase;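 also: the screen sought inhibitors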
# Conditions: purified enzyme, resorufin glucoside fluorescence (screen aimed at inhibitors), 20 min
# In short: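 Normal human glucocerebrosidase (0.2 nM final) was assayed with resorufin β-D-glucopyranoside (30 uM final) in 50mM citric acid/KH2PO4, 10mM sodium taurocholate, 0.01% tween-20, pH 5.9. Compounds were titrated; fluorescence (Ex 548, Em 600) read after 20 min at RT.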
# Potency is read from the fitted curve at half-maximal effect.
# Chain of UniProt P04062 (P04062 whole entry, looked up): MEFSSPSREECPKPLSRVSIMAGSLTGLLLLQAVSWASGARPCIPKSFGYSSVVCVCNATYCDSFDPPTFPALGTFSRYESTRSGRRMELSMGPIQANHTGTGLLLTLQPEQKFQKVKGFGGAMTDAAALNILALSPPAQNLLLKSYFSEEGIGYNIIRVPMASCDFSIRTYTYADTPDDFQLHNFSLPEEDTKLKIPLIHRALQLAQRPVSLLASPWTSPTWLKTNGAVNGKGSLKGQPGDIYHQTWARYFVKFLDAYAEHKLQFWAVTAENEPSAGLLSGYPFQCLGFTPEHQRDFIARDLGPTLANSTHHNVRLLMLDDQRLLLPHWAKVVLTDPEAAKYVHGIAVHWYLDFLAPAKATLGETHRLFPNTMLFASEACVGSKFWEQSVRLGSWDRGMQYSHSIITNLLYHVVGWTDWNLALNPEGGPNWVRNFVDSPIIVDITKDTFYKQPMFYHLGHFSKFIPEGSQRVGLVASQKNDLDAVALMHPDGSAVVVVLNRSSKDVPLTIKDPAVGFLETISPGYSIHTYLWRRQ
row,SMILES,Potency
1,CCCCc1cc(O)c(CCCC)c(O)c1,inactive: > 76.9 µM
2,O=C(NCCCn1ccnc1)c1cc(S(=O)(=O)N2CCOCC2)c(Cl)cc1Cl,inactive: > 76.9 µM
3,Cc1nn(C)cc1CNC(=O)CCC(=O)O,inactive: > 76.9 µM
4,Cn1c(=O)c2cc(S(=O)(=O)NCCC(=O)Nc3ccc(Cl)cc3)ccc2n(C)c1=O,inactive: > 76.9 µM
5,COc1ccc(CCn2c(=S)[nH]c3cc(C(=O)NCc4ccco4)ccc3c2=O)cc1OC,inactive: > 76.9 µM
6,CCOC(=O)c1c(C2CC2)csc1NC(=O)CSCc1c(C)noc1C,inactive: > 76.9 µM
7,O=C(O)CCCNC(=O)OCc1ccccc1,inactive: > 76.9 µM
8,COc1ccc(OC)c(NC(=O)CSc2nc3ccccc3c(=O)n2CCNC(C)=O)c1,inactive: > 76.9 µM
9,C1CN(c2nc3nonc3n3nnnc23)CCO1,inactive: > 76.9 µM
10,COc1cccc(C(=O)NC2CCN(C(=O)N3CCCCC3)CC2)c1,inactive: > 76.9 µM
11,Cc1oc(-c2ccccc2)cc1C(N)=O,inactive: > 76.9 µM
12,C=CCN(CC(=O)NCC1CCCO1)C(=O)CCC(=O)Nc1cc(C)on1 (stereo not drawn),inactive: > 76.9 µM
13,C#CCSc1nc(-c2cccs2)ccc1C#N,inactive: > 76.9 µM
14,COCCN1Cc2cccc(C(=O)Nc3cccc(C)c3C)c2C1=O,inactive: > 76.9 µM
15,CCCS(=O)(=O)N1CCC(C(=O)NCCCOC(C)C)CC1,inactive: > 76.9 µM
16,CC(C)n1nnnc1SCC(=O)NCc1cccs1,inactive: > 76.9 µM
17,CCn1c(N2CCN(S(=O)(=O)c3ccccc3C(F)(F)F)CC2)nc2ccccc21,inactive: > 15.4 µM
18,Cc1ccc(C(=O)NCC2CCCO2)cc1N1CCCC1=O (stereo not drawn),inactive: > 76.9 µM
19,COc1cccc(NC(=O)CN2CCN(c3ccccc3F)CC2)c1,inactive: > 76.9 µM
20,Cc1nnc(-c2ccccc2)c[n+]1[O-],inactive: > 76.9 µM
21,Cc1cccc(C)c1NC(=O)C1CC(=O)N(C(C)C)C1 (stereo not drawn),inactive: > 76.9 µM
22,Cc1cc(C)n(-c2nnc(C)n2NS(C)(=O)=O)n1,inactive: > 76.9 µM
23,O=C(O)c1cc(S(=O)(=O)N2CCCCC2)ccc1F,inactive: > 76.9 µM
24,O=C(c1ccc2c(c1)OCCCO2)c1cccs1,inactive: > 76.9 µM

row,SMILES,Potency
1,CSc1nc(NC(C)(C)C)nc(N2CCOCC2)n1,inactive: > 76.9 µM
2,O=C(Oc1cccc(Oc2ccccc2)c1)N1CCOCC1,inactive: > 76.9 µM
3,O=C(CNC(=O)c1cccs1)NCCN1CCN(Cc2ccccc2)CC1,inactive: > 76.9 µM
4,CCC1(CC)NC(=O)N(CC(=O)Nc2sc3c(c2C(N)=O)CCC3)C1=O,inactive: > 76.9 µM
5,CS(=O)(=O)N(CC(=O)N1CCCCC1)c1sc2c(c1C#N)CCCC2,inactive: > 76.9 µM
6,CCCN1C(=O)C(NS(=O)(=O)c2ccc(N)cc2)(C(F)(F)F)C(C(=O)OC)=C1C (stereo not drawn),inactive: > 76.9 µM
7,Cc1c(NC(=O)c2cccc(S(=O)(=O)N3CCOCC3)c2)c(=O)n(-c2ccccc2)n1C,inactive: > 76.9 µM
8,O=C(O)CCCC(=O)Nc1ccc(C(=O)N2CCCCC2)cc1,inactive: > 76.9 µM
9,COc1ccccc1CNc1nc2nc3c(c(=O)n2[nH]1)CCC3,inactive
10,Cc1cccc(OCC(=O)N(Cc2cccs2)C2CCS(=O)(=O)C2)c1C (stereo not drawn),inactive: > 76.9 µM
11,O=C1c2ccccc2C(=O)N1Cc1nn2c(-c3ccc(Cl)cc3)nnc2s1,active: 7.78 µM
12,COC(=O)c1ccc(-n2nnnc2SCc2ccccc2OC)cc1,inactive: > 76.9 µM
13,COc1cccc(-c2nn3c(-c4cccc(C)c4)nnc3s2)c1,inactive: > 76.9 µM
14,COc1ccc(OC)c(-c2cc(C(=O)Nc3c(C)nn(Cc4ccccc4C)c3C)no2)c1,inactive: > 76.9 µM
15,O=C(CCC(=O)N1CCN(c2ccccn2)CC1)Nc1nnc(C2CCCCC2)s1,inactive: > 76.9 µM
16,CC(=O)c1cccc(N(CC(=O)Nc2cccnc2)S(C)(=O)=O)c1,inactive: > 76.9 µM
17,CCOC(=O)c1c(NC(=O)CNCC(O)CO)sc(C)c1C (stereo not drawn),inactive: > 76.9 µM
18,COc1cc(C(=O)NCCCCCC(=O)O)cc(OC)c1OC,inactive: > 76.9 µM
19,CN(C)c1nc2c(c(=O)n(C)c(=O)n2C)n1CC(=O)c1cccs1,inactive: > 76.9 µM
20,CNS(=O)(=O)c1cccc(C(=O)OC2CCCCC2=O)c1 (stereo not drawn),inactive: > 76.9 µM
21,O=S(=O)(NCc1ccncc1)c1ccc(Br)s1,inactive: > 76.9 µM
22,CCCc1cc(N2CCCC(C(=O)NCC)C2)n2ncnc2n1 (stereo not drawn),inactive: > 76.9 µM
23,COCCn1nnnc1CN1CCN2CCCC2C1 (stereo not drawn),inactive: > 76.9 µM
24,CC(C)n1nnnc1SCC(=O)NCc1ccco1,inactive: > 76.9 µM

row,SMILES,Potency
1,CCc1[nH]nc2c1C(c1cccnc1)C(C#N)=C(N)O2 (stereo not drawn),inactive: > 76.9 µM
2,Cc1nn(Cc2ccccc2Cl)c(C)c1NC(=O)c1cc(-c2ccc(F)cc2)on1,inactive: > 76.9 µM
3,Nc1nnc(N2CCCCC2)s1,inactive: > 76.9 µM
4,Cc1ccc(C(C)C)c(OCCn2c(=O)oc3ccccc32)c1,inactive: > 76.9 µM
5,CCc1ccc2[nH]c(=O)c(CN(Cc3ccc(OC)cc3)Cc3nnnn3CCOC)cc2c1,inactive
6,O=C(c1nc2ccccc2s1)N1CCSCC1,inactive: > 76.9 µM
7,O=C(c1cccc(C(F)(F)F)c1)N1CCCCCC1,inactive: > 76.9 µM
8,CCCC(=O)CN1C(=O)C2(OCCO2)c2ccccc21,inactive: > 76.9 µM
9,COc1ccc(-c2nnc(SCC(=O)Nc3ccccc3)n2C)cc1,inactive: > 76.9 µM
10,O=C(CN1C(=O)c2ccccc2S1(=O)=O)NCCSC1CCCCC1,inactive: > 76.9 µM
11,CCCC(=O)Nc1ccc(Cl)c(NC(=O)c2cccnc2)c1,inactive: > 76.9 µM
12,N=c1oc2ccc3ccccc3c2cc1-c1nnc2n1CCCCC2,inactive: > 76.9 µM
13,COCCOC(=O)c1c(C)oc2ccc(OCc3cc(C(=O)OC)oc3C)cc12,inactive: > 76.9 µM
14,COc1cc(C(=O)NCc2nnc(SCC(=O)N3CCc4ccccc43)o2)cc(OC)c1OC,inactive: > 76.9 µM
15,O=C(Nc1ccc(F)cc1)C1CCN(c2nnnn2-c2ccccc2)CC1,inactive: > 76.9 µM
16,CCc1nnc2sc(-c3ccc(NC(=O)c4ccc5c(c4)OCCO5)cc3)nn12,inactive: > 76.9 µM
17,Cc1ccc2c(CN3CCN(S(=O)(=O)c4ccc5c(c4)OCCO5)CC3)cc(=O)oc2c1C,inactive: > 76.9 µM
18,COc1cc(C(=O)Nc2nnc(CC(=O)N3CCOCC3)s2)cc(OC)c1OC,inactive: > 76.9 µM
19,CCOC(=O)C1=C(C)N=C2SC(C)C(=O)N2C1c1ccc(OC(C)=O)c(OCC)c1 (stereo not drawn),inactive: > 76.9 µM
20,CC1(C)CC(=O)c2c(O)cc(O)cc2O1,inactive: > 76.9 µM
21,Cc1ccc(CNC(=O)c2cccc(-n3cnnn3)c2)cc1,inactive: > 76.9 µM
22,COc1ccc(CNc2nc3nc(C)c(Cl)c(C)n3n2)cc1OC,inactive: > 76.9 µM
23,COc1cccc(/C=N/n2c(CO)nc3ccccc32)c1OC,inactive: > 76.9 µM
24,Cn1c(=O)n(C)c(=O)n(CC(=O)N2CCCCC2)c1=O,inactive: > 76.9 µM

row,SMILES,Potency
1,CCOC(=O)N1CCN(CC(=O)N2c3ccccc3CC2C)CC1 (stereo not drawn),inactive: > 76.9 µM
2,CC(=O)NC(C)C(=O)OCC(=O)c1ccc(Cl)s1 (stereo not drawn),inactive: > 76.9 µM
3,Cn1c(=O)c2c(nc(SCC(=O)c3cccs3)n2Cc2ccc(F)cc2)n(C)c1=O,inactive: > 76.9 µM
4,COc1cc(C(=O)COC(=O)Cc2cnc3sccn23)cc(OC)c1OC,inactive: > 76.9 µM
5,O=C(CSCSCC(=O)Nc1ccc2c(c1)OCO2)Nc1ccc2c(c1)OCO2,inactive: > 76.9 µM
6,Cc1nc(N2CCN(Cc3ccccc3)CC2)[nH]c(=O)c1C,inactive: > 76.9 µM
7,c1ccc2c(-n3cnnn3)cccc2c1,inactive: > 76.9 µM
8,CN(Cc1ccccc1)S(=O)(=O)c1ccc2c(c1)n(C)c(=O)n2C,inactive: > 76.9 µM
9,CCC(c1nnnn1CCOC)N1CCN(Cc2ccccc2)CC1 (stereo not drawn),inactive: > 76.9 µM
10,O=c1c(-c2ccco2)[n+]([O-])c2ccccc2n1OCc1ccccn1,inactive: > 76.9 µM
11,CCn1c2ccccc2c2nnc(SCC(=O)NC(CC(C)C)C(=O)OC)nc21 (stereo not drawn),inactive: > 76.9 µM
12,Cc1nn(Cc2ccc(Cl)cc2Cl)c(C)c1NC(=O)c1nc2n(n1)C(C(F)F)CC(C)N2 (stereo not drawn),inactive: > 76.9 µM
13,O=C(Cn1cccc1)Nc1ccc(F)cc1F,inactive: > 76.9 µM
14,CCNC(=O)c1cc2c(=O)n3cccc(C)c3nc2n(Cc2ccc(C)cc2)c1=N,inactive: > 76.9 µM
15,Nc1nnnn1/N=C/C(Br)=C/c1ccccc1,inactive: > 76.9 µM
16,O=C(c1ccc(Cl)cc1)N1CCCCC(Sc2nnc(-c3ccc4c(c3)OCO4)o2)C1=O (stereo not drawn),inactive: > 76.9 µM
17,Cc1ccc2c(c1)c1c(n2CC(O)Cn2nc(C)c(Br)c2C)C(=O)CCC1 (stereo not drawn),inactive: > 76.9 µM
18,CCOC(=O)c1c(NC(=O)CSc2nnc(CNc3ccc(F)cc3)o2)sc(C)c1C,inactive: > 76.9 µM
19,Cc1cnc(C(=O)Nc2ccc3c(c2)CCC3)cn1,inactive: > 76.9 µM
20,CCCS(=O)(=O)N1CCC(C(=O)N2CCOCC2)CC1,inactive: > 76.9 µM
21,O=S(=O)(/N=S1/CC=CCN1S(=O)(=O)c1ccccc1)c1ccccc1 (stereo not drawn),inactive: > 76.9 µM
